# Test results as given in PubChem BioAssay AID588382 (National Center for Advancing Translational Sciences (NCATS), 2011).
# Hit rate of the full screen: of about 1,300 compounds, about 150 (12%) were called active. About 30% were inconclusive and are not listed. The call rests on the fitted dose curve; in most records, active means well fitted cell-killing curve with a large enough effect; inconclusive means small, poorly fitted or top-dose-only effect, or effect the other way; inactive means flat fitted curve, though single readings scatter. This is a selection; strong and weak results do not stand in their true shares.
# Assay: qHTS of small molecules that selectively kill Giardia lamblia: Hit Validation in HepG2 cytotox;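 further: compound exposure lasted overnight at 37 deg C; nearly all actives have a fitted effect of over 55% in size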;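 on activity change, negative = cytotoxicity: viability measured as cellular ATP by ATPLite luminescence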
# Details: cell viability; Potency: HepG2 cytotoxicity; series mostly up to 38.3 µM; activity change, negative = cytotoxicity: at the top concentration
# Outline: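 HepG2 cells seeded and incubated overnight at 37 deg C, then 23 nL compound added by pintool and incubated overnight at 37 deg C. Viability read as ATP luminescence with ATPLite after 15 min at room temperature.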
# On the % scale 0 is the no-effect control and ±100 the full control effect; potency means the concentration at half of the fitted maximal effect.
SMILES,"activity change, negative = cytotoxicity",Potency
Cc1cc(C(=O)COc2cccnc2[N+](=O)[O-])c(C)n1-c1ccccc1,inactive: 5.87%,
Cc1cccc(N2CCN(C(=S)Nc3ccc4nc(N5CCN(C)CC5)cc(C)c4c3)CC2)c1C,,active: 4.65 µM
O=C(NCc1ccccn1)C1CCCN(S(=O)(=O)c2cc(Cl)ccc2Cl)C1 (stereo not given),,active: 3.69 µM
COc1ccc(-n2nc([N+](=O)[O-])c(=NCCc3ccc(OC)c(OC)c3)n2O)cc1,inactive: 19.2%,
O=C(Nc1cccc(S(=O)(=O)N2CCCCC2)c1)c1ccc([N+](=O)[O-])o1,,active: 11.7 µM
C/C(=N\NC(=O)COc1ccc(C)cc1Br)c1cc([N+](=O)[O-])cs1,inactive: 1.76%,
CCOc1ccccc1NS(=O)(=O)c1c[nH]c(C(=O)OC)c1,inactive: 13.9%,
CCN1C[C@@H]2[C@@H]3C(=O)N(C)C(=O)[C@@H]3[C@](C)(C1=O)N2C(=O)c1ccc(Cl)c(Cl)c1,inactive: 1.87%,
O=C(NNC(=O)c1ccncc1)Nc1cccc([N+](=O)[O-])c1,inactive: -0.887%,
Cc1ccc(CNC(=O)CSc2ccsc2[N+](=O)[O-])cc1,inactive: 11.7%,
O=[N+]([O-])c1nn(-c2ccccc2)[n+]([O-])c1N1CCN(c2ccccc2F)CC1,inactive: 8.55%,
CCC(C)Nc1ccc(NC(C)CC)cc1 (stereo not given),,active: 0.165 µM
COCCn1c(C)cc(/C=C2\NC(=S)N(C)C2=O)c1C,inactive: -6.14%,
CCOCCOc1nc2c(c(=O)n(C)c(=O)n2C)n1Cc1ccc(C)cc1,inactive: 7.93%,
COc1ccc(CCNC(=O)CSc2ccsc2[N+](=O)[O-])cc1OC,inactive: -5.55%,
CC1CS(=O)(=O)CCN1N=Cc1ccc([N+](=O)[O-])o1 (stereo not given),inactive: 18%,
O=C(Nc1csc([N+](=O)[O-])c1)Nc1ccccc1Cl,inactive: -14.3%,
O=C(COc1cccnc1[N+](=O)[O-])Nc1cccc2ccccc12,inactive: -9.25%,
COc1cc(/C=C(\NC(=O)c2ccccc2)C(=O)NCCO)c([N+](=O)[O-])cc1OC,inactive: 23.4%,
CCc1ccccc1NC(=O)CC(NCc1ccccc1)C(=O)O (stereo not given),inactive: 0.896%,
NC(=S)N/N=C1\c2ccccc2-c2c(C(=O)O)cccc21,inactive: 7.38%,
O=C(CSc1ccsc1[N+](=O)[O-])NCCc1ccc(Cl)cc1,inactive: 19.5%,
CC(=O)Nc1ccc(S(=O)(=O)N(CCc2ccccc2)CC(=O)N/N=C/c2ccc(C(=O)O)cc2)cc1,inactive: 18.8%,
COc1cccc(NC2c3ccccc3C(=O)N2Cc2ccco2)c1 (stereo not given),inactive: 8.15%,
O=C(c1cc(COc2c(F)cccc2F)on1)N1CCc2ccccc2C1,inactive: 2.36%,
CC/C=C1/N=C2C(=O)N(C)C(=O)N=C2N(C)N1,,active: 3.29 µM
C[C@H](CO)N1C[C@H](C)[C@H](CN(C)C(=O)Nc2ccc(C(F)(F)F)cc2)Oc2c(NC(=O)c3ccncc3)cccc2C1=O,inactive: -27.4%,

SMILES,"activity change, negative = cytotoxicity",Potency
Cc1ncc([N+](=O)[O-])n1CCOC(=O)c1ccccc1,inactive: 12.9%,
CS(=O)(=O)N1CCN(c2ccc(NC(=O)c3ccc([N+](=O)[O-])o3)cc2)CC1,,active: 3.69 µM
O=c1c2c(-c3ccccc3)csc2ncn1/N=C/c1ccc(O)c([N+](=O)[O-])c1,inactive: 10.5%,
C[C@@H]1CN([C@@H](C)CO)C(=O)c2cccc(NS(=O)(=O)c3cccs3)c2O[C@H]1CN(C)Cc1ccc(C(F)(F)F)cc1,inactive: 7.74%,
COc1cc2c(cc1OC)CN(Cc1cc(=O)oc3c(C)c(C)ccc13)CC2,inactive: 10.8%,
Cn1nc(-c2cccnc2)nc2c(=O)n(C)c(=O)nc1-2,,active: 3.69 µM
COC(=O)c1cc(NC(=O)c2cc(C(C)(C)C)nn2Cc2ccc(F)cc2)ccc1N1CCOCC1,inactive: 0.619%,
CN=c1c([N+](=O)[O-])nn(-c2ccc3c(c2)OCCO3)n1O,inactive: 19.2%,
COc1ccccc1NCCC(=O)OCC(=O)NC1CCCCCC1,inactive: 15.5%,
CCN(C(=O)N(CC)c1ccccc1)c1ccccc1,inactive: 1.3%,
Cc1cc(C)c2sc(NC(=O)c3ccc([N+](=O)[O-])o3)nc2c1,inactive: -15%,
Cc1oc2cc([N+](=O)[O-])c(O)c([N+](=O)[O-])c2c1C(=O)c1ccc(Br)cc1,inactive: 1.97%,
Cc1c(C(=O)O)sc2nc(SCC(=O)Nc3ccc(S(=O)(=O)NC(C)(C)C)cc3)[nH]c(=O)c12,inactive: 7.11%,
Cc1ccn(-c2ccc(NC(=O)c3cccs3)cc2)n1,,active: 9.27 µM
CCOC(=O)N=Nc1c2ccccc2c2nc3no[nH]c3nc12,,active: 0.736 µM
Cc1ccc(CSc2nc3ccncc3[nH]2)cc1,,active: 0.369 µM
Cc1ccc(-n2c(C)cc(C(=O)COc3cccnc3[N+](=O)[O-])c2C)cc1,inactive: 12.6%,
COc1ccc(OCc2nnc3n2N=C(c2ccc(OC)cc2)CS3)cc1,inactive: 3.22%,
[O-][n+]1c2ccccc2c2n1CCN=C2c1ccc(Cl)cc1,inactive: 1.04%,
CCOC(=O)C1=C(C)NC2=C(C(=O)c3ccccc32)C1c1ccc([N+](=O)[O-])o1 (stereo not given),inactive: -1.83%,
O=C(Nc1ncc([N+](=O)[O-])s1)C1CC(=O)N(c2ccc(F)cc2)C1 (stereo not given),inactive: 1.9%,
COc1ccc(CNC(=O)CN2C(=O)COc3ccc(S(=O)(=O)N4CCCCC4)cc32)cc1,inactive: 10%,
O=C(CN1CCN(c2ccccc2)CC1)Nc1scc2c1c(=O)oc1ccccc12,inactive: 23%,
Cc1cc(C)cc(NC(=O)Cn2c(=O)oc3cc(S(=O)(=O)N4CCC(C)CC4)ccc32)c1,inactive: -15.5%,
CCN(C(=O)COC(=O)c1cc(S(=O)(=O)N2CCc3ccccc32)ccc1OC)C1CCS(=O)(=O)C1 (stereo not given),inactive: 18.5%,
Cc1nc(CS(=O)(=O)c2ccc(Cl)cc2)sc1C(=O)O,inactive: 3.81%,
Fc1cc2[nH]cnc2cc1Cl,inactive: 2.06%,

SMILES,"activity change, negative = cytotoxicity",Potency
CN(C)C(=O)C[n+]1ccc(C(N)=O)cc1,inactive: 4.17%,
Cc1ccc(N2CC(C(=O)Nc3ncc([N+](=O)[O-])s3)CC2=O)cc1 (stereo not given),inactive: 11%,
COc1ccc2nc(C)cc(N/N=C/c3ccc(F)cc3)c2c1,,active: 2.33 µM
CCC1CCCCN1C(=O)c1ccc([N+](=O)[O-])o1 (stereo not given),inactive: -13.7%,
O=C(Nc1nnc(SCC(=O)N2CCOCC2)s1)c1ccccc1,,active: 2.33 µM
O=[N+]([O-])c1nn(-c2ccc(Cl)cc2)n(O)c1=NCc1ccncc1,inactive: 15.3%,
CC(=O)CSc1ccc(-c2nc3ccccc3[nH]2)cn1,,active: 14.7 µM
COc1cc(SC)ccc1C(=O)Nc1nc2ccccc2[nH]1,,active: 2.07 µM
CCN(CC)CCNC(=O)c1ccc(NC(=O)COc2ccc3c(c2)CCC3)cc1,inactive: 1.8%,
Cc1ccc(CNC(=O)c2cc(S(=O)(=O)N3CCOCC3)cn2C)cc1,inactive: 1.47%,
CCN1C(=O)[C@H]2[C@H]3CN=C(SCc4ccccc4)N3[C@@](Cc3ccccc3)(C(=O)OC)[C@H]2C1=O,inactive: 14.9%,
Cc1ncc([N+](=O)[O-])n1CCOC(=O)c1cc(Cl)cc(Cl)c1N,inactive: 19.6%,
CCN(CC)CC(=O)c1c(C)n(C)c2ccc(OC)cc12,inactive: 11%,
Cc1ccccc1-c1nc2c(=O)n(C)c(=O)nc-2n(C)n1,,active: 3.29 µM
Cc1nn(CCCC(=O)Nc2c(F)cc(F)cc2Br)c(C)c1[N+](=O)[O-],inactive: 17.7%,
Cc1ccc(S(=O)(=O)CC(=O)Nc2ccc(F)c(F)c2F)cc1,inactive: 20.6%,
CC(NC(=O)Cn1cc(Br)c([N+](=O)[O-])n1)c1ccccc1 (stereo not given),inactive: 19%,
COc1ccc(N2CCCC2)c(NC(=O)c2ccc([N+](=O)[O-])o2)c1,inactive: 14%,
CN(Cc1cccc(Cl)c1)C(=O)C1CCC(=O)N(C2CC2)C1 (stereo not given),inactive: 21.8%,
Fc1ccc(CN2CC[C@H]3C=CCc4cccc(c43)C2)cc1,inactive: 7%,
Cc1ccc(NC(=O)c2ccc([N+](=O)[O-])o2)cc1S(=O)(=O)N1CCOCC1,,active: 13.1 µM
COc1ccc(OCc2cc(C(=O)N(C)Cc3cc(C4CC4)n[nH]3)no2)c(Cl)c1,inactive: 11%,
COc1cc(C(=O)NC(=S)Nc2ccc(Cl)cn2)cc(OC)c1OC,inactive: -8.85%,
N#C/C(=C/c1ccc(O)c([N+](=O)[O-])c1)C(=O)Nc1ccccc1,inactive: -5.68%,
CC1CCN(c2c([N+](=O)[O-])nn(-c3ccc4c(c3)OCCO4)[n+]2[O-])CC1,inactive: 0.373%,
COc1ccc(OC)c(NC(=O)N2CCc3ccccc3C2)c1,inactive: 17.4%,
